The whole screen tested about 310,000 compounds, of which about 2,200 (0.71%) showed an effect of 50% or more. Effects have a minus sign here. This is one part of the list.
target: human ether-à-go-go-related gene (hERG) potassium channel (human, UniProt Q12809); assay: primary screen, population patch clamp on CHO cells stably expressing hERG
Sequence (Q12809 whole entry, looked up): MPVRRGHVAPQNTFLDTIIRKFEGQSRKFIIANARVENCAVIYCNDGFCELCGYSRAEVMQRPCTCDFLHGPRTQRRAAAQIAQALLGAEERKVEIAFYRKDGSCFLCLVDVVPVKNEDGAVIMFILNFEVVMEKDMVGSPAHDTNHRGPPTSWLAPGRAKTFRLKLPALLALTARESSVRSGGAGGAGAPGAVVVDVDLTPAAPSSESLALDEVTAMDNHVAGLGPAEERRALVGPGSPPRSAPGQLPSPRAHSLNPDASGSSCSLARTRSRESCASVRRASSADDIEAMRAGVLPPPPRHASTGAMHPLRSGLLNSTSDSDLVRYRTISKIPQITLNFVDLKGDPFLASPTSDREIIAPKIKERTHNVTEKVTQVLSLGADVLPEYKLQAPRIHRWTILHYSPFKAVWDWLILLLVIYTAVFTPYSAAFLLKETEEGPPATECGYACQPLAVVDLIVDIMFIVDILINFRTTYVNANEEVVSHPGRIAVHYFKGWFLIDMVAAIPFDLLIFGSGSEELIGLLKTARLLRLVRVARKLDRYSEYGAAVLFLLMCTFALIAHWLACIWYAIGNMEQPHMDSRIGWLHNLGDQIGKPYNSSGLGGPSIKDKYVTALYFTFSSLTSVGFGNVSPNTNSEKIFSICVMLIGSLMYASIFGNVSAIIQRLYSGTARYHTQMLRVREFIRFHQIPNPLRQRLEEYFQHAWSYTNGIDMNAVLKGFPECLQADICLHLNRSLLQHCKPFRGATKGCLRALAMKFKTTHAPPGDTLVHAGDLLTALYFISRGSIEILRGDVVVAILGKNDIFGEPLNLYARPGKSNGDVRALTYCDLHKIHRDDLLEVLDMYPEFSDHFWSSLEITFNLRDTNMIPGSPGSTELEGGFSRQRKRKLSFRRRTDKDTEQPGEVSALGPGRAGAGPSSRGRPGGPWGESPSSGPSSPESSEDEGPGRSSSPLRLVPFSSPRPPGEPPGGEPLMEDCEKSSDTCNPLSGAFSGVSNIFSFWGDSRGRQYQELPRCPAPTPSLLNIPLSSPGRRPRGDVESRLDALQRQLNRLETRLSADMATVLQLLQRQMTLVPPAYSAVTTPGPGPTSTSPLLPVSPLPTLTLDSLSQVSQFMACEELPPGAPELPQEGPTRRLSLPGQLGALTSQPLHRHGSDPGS

| SMILES | hERG current change (%, negative = inhibition) at 1uM [%] |
| --- | --- |
| CSc1nsc(NC(=O)OCc2ccc(Cl)cc2)n1 | 15.1 |
| COc1cccc(CNS(=O)(=O)c2ccc(S(=O)(=O)N3CCCC3)cc2)c1 | 11.5 |
| COC(=O)n1c(=O)oc2ccccc21 | 5.88 |
| CN(C)c1nc(Nc2ccccc2)nc(N(C)C)n1 | 14.3 |
| COc1ccccc1CC(=O)Nc1cccc2ccccc12 | 13.7 |
| COc1cccc2cc(C(=O)NCc3ccc(C)cc3)c(=O)oc12 | 18.8 |
| O=C(CNC(=O)N1CC(=O)Nc2ccccc21)Nc1ccc(Cl)cc1 | 13.4 |
| Cc1ccc(S(=O)(=O)N2CCCCC2)cc1NC(=O)c1ccc2c(c1)OCO2 | 7.98 |
| CCOc1ccc2sc(NS(=O)(=O)c3ccc(OC)c(OC)c3)nc2c1 | 11.1 |
| Cc1cc2c(c(=O)n1Cc1ccco1)C(c1cccnc1)C(C#N)=C(N)O2 (centres unmarked) | 1.21 |
| Cn1c(=O)c(C(=O)NCc2ccc(Cl)cc2)c(O)c2ccccc21 | 8.26 |
| Cc1ccc(C)c(S(=O)(=O)N2CCCOC2CNC(=O)C(=O)NCc2cccs2)c1 (centres unmarked) | 6.83 |
| CCC[C@H]1COCCS(=O)(=O)N1Cc1ccccc1F | 1.36 |
| Cc1ccccc1C(=O)N/N=C/c1ccc([N+](=O)[O-])s1 | 7.39 |
| CCCc1cc(=O)n2[nH]cnc2n1 | -5.89 |
| CS(=O)(=O)N1CCc2cc(C(=O)N3CCCCC3)ccc21 | 9.8 |
| COc1ccc(C2c3[nH]c4ccccc4c3C[C@H]3C(=O)N(CCCO)CC(=O)N23)cc1OC (some centres unmarked) | 12.8 |
| COc1ccccc1OCC(=O)Nc1ccccc1C(=O)NC1CC1 | 1.98 |
| CCC(COC(=O)c1cc(OC)c(OC)c(OC)c1)(c1ccccc1)N(C)C.O=C(O)/C=C\C(=O)O (centres unmarked) | 11.9 |
| Cc1cc(C(=O)CN2C(=O)C(=O)N(C)C2=O)c(C)n1-c1cccc(S(=O)(=O)N2CCOCC2)c1 | -5.77 |
| CC(=O)Nc1ccc(S(=O)(=O)NNC(=O)CCC(=O)Nc2cc(C)ccc2C)cc1 | 7.67 |
| CC1=C/C(=N\NC(=O)c2ccc(O)cc2)CC1 | 12.5 |

| SMILES | hERG current change (%, negative = inhibition) at 1uM [%] |
| --- | --- |
| O=C(NC(=S)NNC(=O)c1ccc(Cl)cc1Cl)c1cccnc1 | 7.07 |
| O=[N+]([O-])c1cc(Br)cc(C=Nc2ccc3c(c2)OCO3)c1O | 12.5 |
| CC12CCC(=O)N1C(C(=O)N1CCN(S(=O)(=O)c3ccc(Br)cc3Cl)CC1)CS2 (centres unmarked) | 8.34 |
| CCOc1ccc(NC(=O)C(C)Sc2nccn2C)cc1 (centres unmarked) | 14.1 |
| CC1(C(=O)O)CCC(C(=O)Nc2ccc(S(N)(=O)=O)cc2)C1(C)C (centres unmarked) | 12.6 |
| O=C(Nc1ccc([N+](=O)[O-])c(NC(=O)c2cccnc2)c1)c1cccnc1 | 11.5 |
| O=C1CC(SCCc2nc3ccccc3[nH]2)C(=O)N1c1ccc(Cl)cc1 (centres unmarked) | -11.7 |
| O=C(COC(=O)C1=NN(c2ccccc2)C(=O)CC1)NCc1ccccc1Cl | -3.73 |
| OCc1cccc(Nc2ncnc3sc4c(c23)CCCCC4)c1 | 8.82 |
| CC(C)Cc1ccc(CN2CCCC(NC(=O)CCn3cnnn3)C2)cc1 (centres unmarked) | -6.73 |
| COc1ccc(S(=O)(=O)NCc2csc(C)n2)cc1 | 8.53 |
| CCCCCC(=O)NC(Cc1ccc(OC)c([N+](=O)[O-])c1)C(=O)O (centres unmarked) | 13.6 |
| COc1ccc(-n2c(C)nc(N)c2C(=O)c2ccccc2)cc1 | 0.326 |
| CCCc1ccc2oc(C(=O)N3CCNC(=O)C3CC(=O)OC)c(C)c2c1 (centres unmarked) | 13 |
| Cc1ccc(NS(=O)(=O)c2ccc(C(=O)N3CCCCCCC3)cc2)cc1 | 20.5 |
| CC1CCCCC1NC(=O)C1CC=CCC1C(=O)O (centres unmarked) | 13.9 |
| CC(=O)Cc1nsc(NC(=O)c2cccs2)n1 | 12.7 |
| CSCCNC(=O)c1ccc(OC2CCN(CCc3ccccc3)CC2)cc1 | -14.5 |
| Cc1cc(S(=O)(=O)N2CCN(C(=O)c3ccco3)CC2)ccc1F | 7.78 |
| Cc1ccc(C)c(S(=O)(=O)N2CCCC2CNC(=O)C(=O)NCC2CCCO2)c1 (centres unmarked) | 1.65 |
| COc1ccc(C(=O)/C=C/Nc2ccccn2)c(OC)c1 | 13.6 |
| CCOC(=O)C(=O)N1CCN(c2nc(-c3ccc(Cl)cc3)cs2)CC1 | 6.6 |

Source: paper PMC4336329 (PLoS ONE, 2015)
